Results published in US7544481 (REGENTS OF THE UNIVERSITY OF MICHIGAN, dated 2009).

How the values were obtained:
[1] = target: [35S]methionine-labeled luciferase protein (UniProt P08659 = luciferase, limits assumed, [35S]methionine label); assay: GST pull-down of in vitro translated 35S-labeled protein, autoradiography
Protocol: (§1) GST Fusion Protein Expression and In Vitro Binding Assay—Native (CD40T) and mutant (CD40A) CD40 sequences used in the construction of the yeast bait vectors were excised and subcloned into the glutathione S-transferase ("GST") fusion protein vector pGSTag (as described in Ron et al. (1992) *BioTechniques* 13:866-869) and transformed into the *Escherichia coli* strain BL21 […] pLysS (as described in Studier et al. (1991) *J. Mol. Bio.* 219:37-44). GST and GST fusion proteins were prepared using published procedures of Studier et al. (1991) supra, and the recombinant proteins were immobilized onto glutathione-agarose beads at a concentration of about 8 mg/ml (as described in Harper et al. (1993) supra).
(§2) Figure 2: FIGS. 2A and 2B show the interaction of in vitro translated CD40bp with GST fusion proteins. [^35S]Methionine-labeled CD40bp or luciferase protein as control was incubated with GST alone, GSTCD40T (native CD40 cytoplasmic domain), or GSTCD40A (mutant CD40 cytoplasmic domain $Thr^234 \rightarrow Ala$). Following incubation and washing, GST beads were boiled in SDS-sample buffer and resolved on a 10% acrylamide gel, and bound protein was visualized by autoradiography.

[2] = target: T1, in vitro translated [35S]methionine-labeled CD40bp (human, UniProt Q13114 1-568, [35S]methionine label); assay: as above
T1 construct: Translated in reticulocyte lysate from the 2.2-kilobase pair cDNA excised from pACT; It migrated at 64 kDa, close to the predicted mass
T1 sequence: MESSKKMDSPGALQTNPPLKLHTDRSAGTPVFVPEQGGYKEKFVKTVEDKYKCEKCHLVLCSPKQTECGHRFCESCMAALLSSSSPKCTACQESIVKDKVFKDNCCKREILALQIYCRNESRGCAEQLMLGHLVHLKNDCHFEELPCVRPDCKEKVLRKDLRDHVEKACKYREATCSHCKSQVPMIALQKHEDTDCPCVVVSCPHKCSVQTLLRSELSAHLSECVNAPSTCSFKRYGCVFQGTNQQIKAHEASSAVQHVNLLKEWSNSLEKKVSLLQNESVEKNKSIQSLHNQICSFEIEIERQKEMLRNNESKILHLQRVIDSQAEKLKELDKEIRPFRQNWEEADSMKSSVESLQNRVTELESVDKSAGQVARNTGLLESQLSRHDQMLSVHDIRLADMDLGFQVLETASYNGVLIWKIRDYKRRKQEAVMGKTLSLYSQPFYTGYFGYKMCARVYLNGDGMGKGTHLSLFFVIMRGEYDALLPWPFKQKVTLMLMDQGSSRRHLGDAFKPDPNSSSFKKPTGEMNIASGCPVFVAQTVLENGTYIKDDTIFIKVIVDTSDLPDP
Protocol: as §1, §2

B1: GST alone (other)
chain: not shown
notes: Control beads; also called glutathione S-transferase
binding result [1]: no binding | binding result [2]: no binding
